Measurements reported in the RNAGym collection of RNA variant scans (doi:10.1101/gad.245936.114).
Variants at the background level are over-represented here.

B1: tRNA (parent)
chain: CUCUCGGUAGCCAAGUUGGUUUAAGGCGCAAGACUUUAAUUUAUCACUACGAAAUCUUGAGAUCGGGCGUUCGACUCGCCCCCGGGAGAUUUUUUCCUCGAGCAA

Variants of: B1
Assay: nonsense suppression (GFP-seq) (ratio to wild type); higher = more function; SUP4oc tRNA, yeast GFP reporter sort-seq
In short: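 Yeast were grown in raffinose/galactose medium with 80 mg/L adenine, each strain bearing a genome-integrated ochre-suppressor tRNA variant from a ~3% random-mutation library, a galactose-driven GFP ochre reporter, and RFP. After sorting into GFP/RFP bins, every bin was sequenced on an Illumina platform at phred ≥30. The GFPSEQ value, a measure of nonsense suppression, is the weighted bin median GFP/RFP relative to the unmutated parent tRNA, using each variant's estimated cell share per bin as the weight. Only variants with ≥100 reads and ≥30 cells were included.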

Nonsense suppression, ≤ 0.026:
CUCUCGGUAGCCAAGUUGGUUUAAGGCGCACGACUUUAAUUUAUCACUACGAAAGCUUGAGAUCGGGCGUUCGACUCGCCCCCGGGAGAUUUUUUCCUCGAGCAA [A31C U55G]
CUCUCGGUAGCCAAGUUGGUUUAAGGCGCACGACAUUAAUUUAUCACUACGAAAUCUUGAGAUCGGGCGUUCGACUCGCCACCGGGAGAUUUUUUCCUCGAGCAA [A31C U35A C81A]
CUCUCGGUAGCCAAGUUGGUUUAAGGCGCAGGACUUUAAUUUAUCACUACGAAAUCUUGAGAUCGGGCGUUCGUCUAGCCCCCGGGAGAUUUUUUCCUCGAGCAA [A31G A74U C77A]
CUCUCGGUAGCCAAGUUGGUUUAAGGCGCACGACUUUAAUUUAUCACUACGAAAUCUAGAGAUCGGGCGUUCGACUCGCCCCCGGGAGAUUUUUUCCUCGAGCAA [A31C U58A]
CUCUCGGUAGCCAAGUUGGUUUAAGGCGCACGACUUUAAUUUAUCACUACGAAAUCAUGAGAUCGGGCGUUCCACUCGCCCCCGGGACAUUUUUUCCUCGAGCAA [A31C U57A G73C G88C]
CUCUCGGUAGCCAAGUUGGUUUAAGGCGCAGGAAUUUAAUUUAUCACUACGAAAUCUUGAGAUCGGGCGUUCGACUCGCCCCCGGGAGAUUUUUUCCUCGAGCAA [A31G C34A]
CUCUCGGUAGCCAAGUUGGUUUAAGGCGCAGGAUUUUAAUUUAUCACUACGAAAUCUUGAGAUCGGGCGUUCGACUCGCCCCCGGGAGAUUUUUUCCUCGAGCAA [A31G C34U]
CUCUCGGUAGCCAAGUUGGUUUAAGGCGCACGACUUUAAUUUAUCACUACGAAAUCUUUAGAUCGGGCGUUCGACUCGCCCCCAGGAAAUUUUUUCCUCGAGCAA [A31C G59U G84A G88A]
CUCUCGGUAGCCAAGUUGGUUUAAGGCGCACGACUUUAAUUUAUCACUACGAAAUCUUGAGAUCGGUAGUUCGACGCGCCCCCGGGAGAUUUUUUCCUCGAGCAA [A31C G67U C68A U76G]
CUCUCGGUAGCCAAGUUGGUUUAAGGCGCACGACUUUAAUUUAUCACUACGAAAUCUUGAGAUCGCGCGUUCGACUCGCCCCCGUGAGAUUUUUUCCUCGAGCAA [A31C G66C G85U]
CUCUCGGUAGCCAAGUUGGUUUAAGGCGCACGACUUUAAUUUAUCACUACGAAAUCUUGAGAUCGGACGUUCGACUCGCCCCCGAGAGAUUUUUUCCUCGAGCAA [A31C G67A G85A]
CUCUCGGUAGCCAAGUUGGUUUAAGGCGCACCACUUUAAUUUAUCACUACGAAAUCUUGAGAUCGGGCGUUCGACUCGCCCCCGGGAGAUUUUUUCCUCGAGCAA [A31C G32C]
CUCUCGGUAGCCAAGUUGGUUUAAGGCGCACGACUUUAAUUUAUCACUACGAAAUCUUGAAAUCGGGCGUUCGAGUCGCCCCCGGGAGAUUUUUUCCUCGAGCAA [A31C G61A C75G]
CUCUCGGUAGCCAAGUUGGUUUAAGGCGCACGACUUUAAUUUAUCACUACGAAAUCUUGAGAUCGGGACUUCGACUCGCCCCCGGGAGAUUUUUUCCUCGAGCAA [A31C C68A G69C]
CUCUCGGUAGCCAAGUUGGUUUAAGGCGCACGACUUUAAUUUAUCACUACGAAAUCUUGAGAUCGGGCGUUGGACUCGCCCCCGGGAGAUUUUUUCCUCGAGCAA [A31C C72G]
CUCUCGGUAGCCAAGUUGGUUUAAGGCGCACGACCUUAAUUUAUCACUACGAAAUCUUGGGAUCGGGCGUUCGACUCGCCCCCGGGAACUUUUUUCCUCGAGCAA [A31C U35C A60G G88A A89C]
CUCUCGGUAGCCAAGUUGGUUUAAGGCGCAGGACUUUAAUUUAUCACUACGAAAUCUUGAGAUCGGGCGUUCGGCUCGCCCCCGGGAGAUUUUUUCCUCGAGCAA [A31G A74G]
CUCUCGGUAGCCAAGUUGGUUUAAGGCGCACGACUUUAAUUUAUCACUACGAAAUCUUGAGAUCGGGCGUUCGACUCGCCCCCGGGCGAUUUUUUCCUCGAGCAA [A31C A87C]
CUCUCGGUAGCCAAGUUGGUUUAAGGCGCACGACUUUAAUUUAUCACUACGAAAUCUUGAGAUCGGGCGUUCGACUCGCCCCCGGGGGAUUUUUUCCUCGAGCAA [A31C A87G]
CUCUCGGUAGCCAAGUUGGUUUAAGGCGCAGGAGUUUAAUUUAUCACUACGAACUCUUGAGAUCGGGCGUUCGACUCGCCCCCGGGAGAUUUUUUCCUCGAGCAA [A31G C34G A54C]
CUCUCGGUAGCCAAGUUGGUUUAAGGCGCAGGACUUUAAUUUAUCACUACGAAAUCUUGAGGACGGGCGUUCGACUCGCCCCCGGGAGAUUUUUUCCUCGAGCAA [A31G A62G U63A]
CUCUCGGUAGCCAAGUUGGUUUAAGGCGCACGACUUUAAUUUAUCACUACGAAAUCUUGAGAUCGGGCGUUCGACUCACCCCCGGGAGAUUUUUUCCUCGAGCAA [A31C G78A]
CUCUCGGUAGCCAAGUUGGUUUAAGGCGCACGACUUUAAUUUAUCACUACGAAAUCUUGAGAUCGGGCGUUCGACUCUCCCCCGGGAGAUUUUUUCCUCGAGCAA [A31C G78U]
CUCUCGGUAGCCAAGUUGGUUUAAGGCGCACGACUUUAAUUUAUCACUACGAAAUCUUGAGAUCGGGCGUUCGACGCGCCCCCGGGAGAUUUUUUCCUCGAGCAA [A31C U76G]
CUCUCGGUAGCCAAGUUGGUUUAAGGCGCAGGACUUUAAUUUAUCACUACGAAAUCUUGGGAUCGGGCAUUCGACUCGCCCCCGGGAGAUUUUUUCCUCGAGCAA [A31G A60G G69A]
CUCUCGGUAGCCAAGUUGGUUUAAGGCGCACGACUUUAAUUUAUCACUACGAAAUCUUGAGAUCGGGCGUUCGACUCGCCCCCGGGAGGUUUUUUCCUCGAGCAA [A31C A89G]
CUCUCGGUAGCCAAGUUGGUUUAAGGCGCACGACUUUAAUUUAUCACUACGAAAUCUUGAGAUUGGGGGUUCGACUCGCCCCCGGGAGAUUUUUUCCUCGAGCAA [A31C C64U C68G]
